Measured values: PubChem BioAssay AID488969 (Vanderbilt High Throughput Screening Facility, 2010)
In all, about 110,000 compounds were measured (“z-score”: median about -0.1, highest 2% from about 2 on). The list shows a part of the results. Activity calls are given as the source filed them.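 The calls were made as follows: active = z-score in the third read window above 3 or below -3; inactive = the rest.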

Each compound was assayed against Metabotropic glutamate receptor 8 (Rattus norvegicus) (UniProt P70579) (assay: mGluR8 Gi/Go-coupled signaling modulation – cell-based, rat, thallium flux, HTS, primary screen (AID 488969)). Conditions: HEK293 rat mGluR8, GIRK (G protein-gated inwardly rectifying potassium channel) thallium flux, FluoZin2; at 10 µM; stronger effect = higher value; submaximal glutamate (EC20) added with thallium.
Chain of UniProt P70579 (P70579 whole entry, looked up): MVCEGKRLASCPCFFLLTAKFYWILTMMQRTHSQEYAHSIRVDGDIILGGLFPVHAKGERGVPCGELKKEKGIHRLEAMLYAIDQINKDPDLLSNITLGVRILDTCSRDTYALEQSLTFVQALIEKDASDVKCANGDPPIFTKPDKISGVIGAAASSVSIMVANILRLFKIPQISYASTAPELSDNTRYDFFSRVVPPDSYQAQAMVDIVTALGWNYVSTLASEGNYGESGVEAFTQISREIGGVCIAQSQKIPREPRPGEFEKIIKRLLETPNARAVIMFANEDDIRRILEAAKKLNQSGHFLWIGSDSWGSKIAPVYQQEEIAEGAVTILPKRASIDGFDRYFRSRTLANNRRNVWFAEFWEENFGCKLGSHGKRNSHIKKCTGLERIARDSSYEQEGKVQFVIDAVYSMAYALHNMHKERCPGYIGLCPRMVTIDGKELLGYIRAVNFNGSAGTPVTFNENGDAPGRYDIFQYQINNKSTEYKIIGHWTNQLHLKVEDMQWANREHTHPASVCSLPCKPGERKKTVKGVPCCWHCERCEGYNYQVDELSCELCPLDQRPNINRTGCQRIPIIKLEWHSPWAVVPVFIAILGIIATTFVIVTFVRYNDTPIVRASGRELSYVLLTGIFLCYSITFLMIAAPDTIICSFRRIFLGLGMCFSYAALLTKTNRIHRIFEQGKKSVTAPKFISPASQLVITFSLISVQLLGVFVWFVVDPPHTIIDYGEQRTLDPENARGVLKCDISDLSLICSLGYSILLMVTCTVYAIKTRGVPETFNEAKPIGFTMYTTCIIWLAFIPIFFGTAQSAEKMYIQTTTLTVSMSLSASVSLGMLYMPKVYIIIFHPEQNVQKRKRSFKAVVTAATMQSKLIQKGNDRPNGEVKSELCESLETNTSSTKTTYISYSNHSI

| SMILES | z-score |
| --- | --- |
| Cc1ccc(CNC(=O)C2CCN(S(=O)(=O)c3cnc[nH]3)CC2)cc1 | 0.036 |
| O=C(NC(=S)N1CCCc2ccccc21)c1ccc(Br)cc1 | active: 9.56 |
| COc1ccc(Cl)cc1NC(=S)N(CCCN1CCOCC1)Cc1cn(C)c2ccccc12 | -0.154 |
| Cc1ccc(NC(=O)CCn2cccc2)cc1 | -0.101 |
| O=C(CN1N=C(c2ccc(Cl)cc2)CCC1=O)NCc1cccnc1 | -0.0556 |
| CCCn1c(-c2ccc(OC)cc2)nc2nc3ccccc3nc21 | -0.363 |
| COc1ccc(NC(=O)C2=C(C)C(=O)OC23CCC(C)CC3)cc1Cl (stereo not given) | 0.29 |
| Cc1cc(C)cc(SCc2noc(C(=O)NC(C)C)c2C(=O)O)c1 | -0.138 |
| CCOC(=O)N1CCC(NC(=O)c2cc(S(=O)(=O)N3CCc4ccccc43)cn2C)CC1 | -0.277 |
| O=C(CN1CCN(Cc2ccccc2Cl)C1=O)NCc1ccco1 | 0.164 |
| S=C1NCCOCCOCCOCCN1 | -0.259 |
| COc1ccc(C(=O)NC(=S)N2CCCCC2)cc1[N+](=O)[O-] | 1.25 |
| COc1ccc(/C=N/NC(=O)c2ccc(COc3ccccc3Cl)o2)cc1 | -0.279 |
| COc1ccc(NC(=O)C23CCC(C2)C(C)(C)C3=O)cc1 (stereo not given) | -0.0724 |
| Cc1ccc(NC2c3ccccc3C(=O)N2CCN2CCOCC2)cc1 (stereo not given) | 0.0479 |
| O=C(CSCc1ccc(Cl)cc1)NN=C1CCCCCC1 | 0.757 |
| CCCCOc1ccccc1C1C(C(N)=O)=C(C)Nc2nnnn21 (stereo not given) | -2.99 |
| CC(=O)N(C)C1=C(N2CCOCC2)C(=O)c2ccccc2C1=O | -0.168 |
| O=C(NCc1cccs1)N[C@@H](Cc1ccccc1)C(=O)O | 0.257 |
| CCCCNC(=O)COC(=O)c1c2c(nc3ccccc13)/C(=C/c1cccs1)CC2 | -0.279 |
| CCOC(=O)c1c(C)c(C(=O)N2CCCCCC2)c(C)n1C | -0.268 |
| O=C(CCCCCN1C(=O)CCC1=O)Nc1ccc2c(c1)OCO2 | -0.12 |

| SMILES | z-score |
| --- | --- |
| COc1ccc(S(=O)(=O)N(C)Cc2cccs2)cc1Br | -0.126 |
| O=C(O)c1cccc(Cn2c(Cl)c(/C=N/NC(=O)c3ccccc3Cl)sc2=O)c1 | 0.217 |
| O=C(CC(C(=O)O)C1CCCO1)Nc1cccc(C(F)(F)F)c1 (stereo not given) | 0.396 |
| Cc1cccc(OCc2nnc(SCC(=O)N3CCN(C(=O)c4ccco4)CC3)n2C)c1C | 0.31 |
| Cc1ccc(N(C(=O)CCC(=O)Nc2cc(C)on2)C(C(=O)NC2CCCC2)c2cccs2)cc1 (stereo not given) | -1.5 |
| COc1ccc2c(c1)c(=O)oc1cc(OCC(=O)N3CCC(C)CC3)ccc12 | -0.128 |
| C=CCN1CCN(Cc2cnc(Cl)s2)CC1 | 0.00711 |
| CCCOc1ccc(/C(O)=C2/C(=O)C(=O)N(CCCn3ccnc3)C2c2ccco2)cc1 (stereo not given) | -0.0422 |
| O=C(CN1CCN(c2ccccc2)CC1)Nc1c(C(=O)C2CC2)oc2ccccc12 | -0.421 |
| COc1cc(NC(=O)C2C3C=CC(C3)C2C(=O)O)c(OC)cc1Cl (stereo not given) | 0.0185 |
| COCCCNC(=O)c1ccccc1NS(=O)(=O)c1ccc(C)cc1 | -0.247 |
| C/C(=N\OCC(=O)Nc1c(C)cc(C)cc1C)c1ccc2c(c1)OCCO2 | -0.217 |
| S=c1nc(-c2ccccc2)n(Cc2ccco2)c2c1CCCC2 | 2.16 |
| Cc1ccc(C)c(NC(=S)N2CCN(CCO)CC2)c1 | 0.0185 |
| CN(C)S(=O)(=O)Oc1ccsc1C(=O)Nc1cccc(Cl)c1 | -0.299 |
| C=CCn1c(SCC(=O)N2N=C(c3ccco3)CC2c2ccco2)nnc1-c1ccncc1 (stereo not given) | 0.206 |
| O=c1c2c(nc3nc(Cc4ccccc4)[nH]n13)CCC2 | -0.984 |
| Nc1c(-c2ccccc2)c(CSc2nc3ccccc3[nH]2)nn1-c1ccc(Cl)cc1 | -0.471 |
| NC(=O)C1CCN(C(=O)CCCCCn2c(=O)[nH]c3ccsc3c2=O)CC1 | -0.0678 |
| O=C(NCc1ccccc1)c1ccc(COCC(F)(F)F)o1 | 0.193 |
| Cn1nc(C(=O)NC2=NCCS2)ccc1=O | -0.148 |
| COc1ccc(S(=O)(=O)N(C)CC(=O)N2CCOCC2)cc1 | 0.616 |

| SMILES | z-score |
| --- | --- |
| CCn1c(=O)c2ccccc2n2c(SCC(=O)N3CCc4ccccc4C3)nnc12 | 1.51 |
| O=C1c2ccccc2-c2nc3ncnn3c(-c3ccccc3Cl)c21 | -0.172 |
| CC1CCN(CCCNC(=O)CCCNC(=O)Cn2cnc3sc4c(c3c2=O)CCCC4)CC1 | 0.228 |
| CCn1c(SCC(=O)N/N=C/C=C\c2ccco2)nc2ccccc21 | -0.415 |
| CC(C)(C)n1nnnc1C(c1cccnc1)N1CCN(c2ccccc2F)CC1 (stereo not given) | 1.05 |
| COC(=O)CC/C(O)=C1/C(=N)CC(C)(C)CC1=O | -0.39 |
| O=C(CN1CCN(c2ccccc2)CC1)c1ccc2cc[nH]c2c1 | 0.196 |
| CCc1ccccc1NC(=O)CC(c1ccc(OC)cc1)n1cccc1 (stereo not given) | 0.00269 |
| c1ccc(-c2cc(N3CCCCCC3)n[nH]2)cc1 | -0.216 |
| COc1ccc(NC(=O)Nc2nnc(-c3ccccc3SCc3ccccc3)s2)cc1 | -0.158 |
| CS(=O)(=O)N1CCN(C(=O)c2cc(-c3ccccc3)nc3ccccc23)CC1 | -0.102 |
| COc1ccc(/C=C2\CCc3ccccc3C2=O)cc1OC | 1.63 |
| CCOc1ccccc1NC(=O)C(CC(C)C)NC(=O)C1CCCCC1 (stereo not given) | -0.18 |
| CCOc1ccc(NC(=O)COC(=O)CCCc2c[nH]c3ccccc23)cc1 | -0.489 |
| COc1cc(C(=O)OC(C)CN2CCCC2)cc(OC)c1OC (stereo not given) | -0.00418 |
| Cc1ccc(C(C(=O)NC2CCCCC2)N(Cc2ccccc2)C(=O)Cc2c[nH]c3ccccc23)o1 (stereo not given) | -0.243 |
| CCOC(=O)c1nnn(CC(=O)N2N=C(c3ccc(Cl)cc3)CC2c2ccccc2)c1C(=O)OCC (stereo not given) | 1.16 |
| COc1ccccc1/C=C(/C(=O)OCC(=O)Nc1cc(C)ccc1C)c1ccccc1 | -0.105 |
| O=C(NC1CCCCC1)[C@H](O)[C@@H](O)C(=O)NC1CCCCC1 | -0.394 |
| COc1ccnc(Oc2ccc(C)cc2C)c1C#N | -0.085 |
| Cc1cccc(NC(=O)C2(c3cccs3)CCOCC2)n1 | -0.352 |
| COc1ccc(-c2noc(CCCc3ccccc3)n2)cc1OC | -0.00278 |

| SMILES | z-score |
| --- | --- |
| Cc1ccc2nc(SCc3cn4c(C)cc(C)nc4n3)[nH]c2c1 | -0.419 |
| COc1cc(/C=C(\NC(=O)c2ccccc2)C(=O)NCC(=O)O)c([N+](=O)[O-])cc1OC | 0.051 |
| CCOc1ccc(C(=O)OCc2nnc(-c3cccs3)o2)cc1OC | -1.3 |
| O=C(CCNC(=O)Cn1ccc2ccccc2c1=O)NCCCN1CCN(c2ccccc2F)CC1 | 0.0122 |
| Clc1cccc(-c2nc3nc4ccccc4nc3n2Cc2ccccc2)c1 | -0.0197 |
| CN1CCN(Cc2cccc(Oc3ccccc3)c2)CC1 | 0.0807 |
| O=C(CCN1C(=O)c2ccccc2C1=O)C1=NN[C@@H]2C(=O)N(c3cccc(F)c3)C(=O)[C@H]12 | -0.278 |
| COc1ccc(-c2nnc(SCc3cccc(C#N)c3)o2)cc1 | -0.227 |
| COc1ccc(Cl)cc1NC(=O)C(=O)N/N=C/c1cc(C)n(-c2ccc(C)cc2)c1C | 0.183 |
| Cc1ccccc1Nc1nc(-c2sc(NC(=O)c3ccc([N+](=O)[O-])cc3)nc2C)cs1 | 0.0251 |
| O=C(Cc1c[nH]c2ccccc12)N/N=C/c1ccc(F)cc1 | -0.0857 |
| O=C(NCCN1CCOCC1)c1cc2ccccc2[nH]1 | -0.746 |
| O=C(CNC(=O)Cc1ccccc1)N=Nc1c(O)n(Cc2ccc3c(c2)OCO3)c2ccccc12 | -0.518 |
| COc1ccc2c(c1)c(=O)oc1cc3oc(C)c(C)c3cc12 | -0.412 |
| CC1CCCN(c2nc3nonc3nc2N2CCCC(C)C2)C1 (stereo not given) | -0.3 |
| COc1ccc(Nc2cnn(-c3nc4ccccc4s3)c(=O)c2Cl)cc1 | -0.201 |
| O=C(Nc1ccc2oc(-c3ccccc3)nc2c1)c1cccnc1 | -0.943 |
| COc1cc(NC(=O)CN2C(=O)NC(C)(CC(C)C)C2=O)cc(OC)c1 (stereo not given) | -0.681 |
| O=C(Nc1ccccc1)N(C1=NCCCCS1)c1cccc2ccccc12 | -0.463 |
| COc1cc2c(cc1OC)/C(=C/C(=O)N1CCOCC1)NC(C)(C)C2 | -0.195 |
| Cc1ccc(S(=O)(=O)Nc2cccc3cccnc23)cc1 | -0.731 |
| Cc1nc2nc(SCC(=O)N3CCOCC3)nn2c(C)c1Cc1ccccc1 | 0.476 |

| SMILES | z-score |
| --- | --- |
| CCCc1cc(N2CCCC(C(=O)Nc3c(OC)cccc3OC)C2)n2ncnc2n1 (stereo not given) | -0.175 |
| COc1ccc(S(=O)(=O)N2CCCCC2)cc1NC(=S)Nc1cccc(Cl)c1C | -0.267 |
| Cn1ncc(Br)c1C(=O)Nc1ccc(F)cc1F | 0.238 |
| CCOc1ccc(Nc2nc(Cl)nc(NCCO)n2)cc1 | 0.122 |
| COc1cc(/C=N/NC(=O)c2ccc([N+](=O)[O-])cc2Cl)cc(Br)c1O | 0.0738 |
| CNc1nc(CCN2C(=O)c3ccccc3C2=O)cs1 | -0.0681 |
| Cc1ccc(F)c(NC(=O)C2CCCCC2C(=O)O)c1 (stereo not given) | 1.59 |
| CCC(=O)Nc1ccc(S(=O)(=O)Nc2cc(C)on2)cc1 | 0.42 |
| O=C(NCC1CCCO1)c1c(O)c2cccc3c2n(c1=O)CCC3 (stereo not given) | -0.736 |
| COc1ccc(N=C2SC(CC(=O)Nc3ccccc3F)C(=O)N2Cc2ccco2)cc1 (stereo not given) | -0.259 |
| Cc1cc(C(=O)OC(C)C(=O)Nc2nc(-c3ccccc3)cs2)c(C)o1 (stereo not given) | 0.00978 |
| Cc1sc2c(c1C)c(=O)n(-c1ccc(F)cc1)c(=O)n2CC(=O)NCc1ccco1 | -0.238 |
| COc1ccc(C(=O)N2CC(=O)N(CCc3ccccc3)C(=O)C2)cc1OC | -0.521 |
| Fc1ccc(CSc2nncn2NCc2ccccc2)cc1 | 0.189 |
| O=C(Cn1ccc([N+](=O)[O-])n1)NCc1ccco1 | -0.0548 |
| CC(=O)Nc1ccc(N=Cc2nc(-c3ccc(C)cc3)oc2O)cc1 | -0.604 |
| O=C(Nc1ccc2c(c1)nc1n2CCSC1)c1ccccc1 | -0.15 |
| COC(=O)C(C(=O)OC)C(C(=O)OC)C(C(=O)OC)C(=O)OC | 0.288 |
| Cn1nc(-c2ccc(Cl)cc2)nc2c(=O)n(C)c(=O)nc1-2 | -0.0841 |
| C(=C\c1nnc2c3ccccc3ncn12)/c1ccccc1 | -0.229 |
| O=C(NC1CCCc2ccccc21)c1ccc(Cl)nc1 (stereo not given) | -0.221 |
| O=C(C1=C(O)C(=O)N(CCN2CCOCC2)C1c1ccccn1)c1cccs1 (stereo not given) | 0.522 |
